About 410 targets per protein were measured; listed, in parts, are those with the strongest signals and a random draw of the rest.
The substances below were run on GlcNAc(b1-3)Gal(b1-4)GlcNAc(b1-3)Gal(b1-4)GlcNAc(b1-3)Gal(b1-4)GlcNAc(b1-3)Gal(b1-4)GlcNAc(b1-2)Man(a1-3)[GlcNAc(b1-3)Gal(b1-4)GlcNAc(b1-3)Gal(b1-4)GlcNAc(b1-3)Gal(b1-4)GlcNAc(b1-3)Gal(b1-4)GlcNAc(b1-2)Man(a1-6)]Man(b1-4)GlcNAc(b1-4)GlcNAc (assay: glycan array binding signal (z-score within array); higher = stronger binding). Details: glycan notation: IUPAC condensed, linker removed.
Outline: (§1)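 Arrays were curated from the Consortium for Functional Glycomics database, 3228 in total, and kept only where the protein sequence was available. Binding is expressed as a within-array Z-score. This score was averaged across arrays of the same protein sequence at different concentrations or buffers and across linkers, and negative values can be read as non-binding.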

Substance	glycan array binding signal (z-score)
MBP (Homo sapiens) (chain not printed)	8.18
Gal 3 (Homo sapiens) (chain not printed)	3.94
Meso764 (Homo sapiens) (chain not printed)	-0.011

Each substance was assayed on GlcNAc(b1-3)GalNAc in the same assay as above. Details: glycan notation: IUPAC condensed, linker removed.
Outline: as §1

Substance	glycan array binding signal (z-score)
Siglec-2 (Homo sapiens) (chain not printed)	-0.206
M-Ficolin A256V (Homo sapiens) (chain not printed)	-0.159
Gal 8 long (Homo sapiens) (chain not printed)	-0.294
Serum Amyloid P component (Homo sapiens) (chain not printed)	0.193

These substances were tested on GlcNAc(b1-3)Gal in the same assay as above. Details: glycan notation: IUPAC condensed, linker removed.
Outline: as §1

Substance	glycan array binding signal (z-score)
M-Ficolin G221F A256V (Homo sapiens) (chain not printed)	-0.317
Thrombomodulin Extracellular (Homo sapiens) (chain not printed)	-0.293
Gal 3 (Homo sapiens) (chain not printed)	-0.318
NCAM1 (Homo sapiens) (chain not printed)	0.04

These substances were tested on GlcNAc(b1-3)[GlcNAc(b1-4)][GlcNAc(b1-6)]GlcNAc in the same assay as above. Details: glycan notation: IUPAC condensed, linker removed.
Outline: as §1

Substance	glycan array binding signal (z-score)
MBP (Homo sapiens) (chain not printed)	3.71
STIM-3 (Mus musculus) (chain not printed)	2.32
Meso764 (Homo sapiens) (chain not printed)	0.168
Serum Amyloid P component (Homo sapiens) (chain not printed)	-0.323

From the supplement of paper PMC8728848
